# Measured values: PubChem BioAssay AID588579 (National Center for Advancing Translational Sciences (NCATS), 2011)
# The whole screen tested about 400,000 compounds, of which about 2,200 (0.55%) were called active. Not shown: some 1% with an inconclusive outcome. Calls come from the whole dose curve; as a rule, active = well fitted inhibition curve with a large enough effect; inconclusive = small, poorly fitted or top-dose-only effect, or another doubt; inactive = no such curve, though single readings can be large or run the other way. The entries are a selection whose mix differs from that of the whole data set. Where a structure was tested more than once in an assay, its records may differ in their call. Non-standard residues stand in square brackets, D forms with d. Residues, ends and D or L forms follow the SMILES beside them. Phe(4-NH2) = Nc1ccc(C[C@H](N)C(=O)O)cc1
# Biological target: DNA polymerase kappa (Homo sapiens) (UniProt Q9UBT6)
# Experiment: qHTS for Inhibitors of Polymerase Kappa
# Details: purified Pol kappa, fluorescent DNA synthesis assay, 10 min; series mostly up to 107 µM; activity, negative = inhibition: at the top concentration
# How it was run: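 Pol kappa 10 nM + cpd, 15 min RT; start w/ substrate 50 nM final; fluorescence kinetic read, 0 and 10 min. Neg ctrl: buffer, no enzyme.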
# % is set by controls: 0 for no effect and ±100 for the full control effect; potency is the fitted concentration of half-maximal effect.
# Sequence of UniProt Q9UBT6 (Q9UBT6 whole entry, looked up): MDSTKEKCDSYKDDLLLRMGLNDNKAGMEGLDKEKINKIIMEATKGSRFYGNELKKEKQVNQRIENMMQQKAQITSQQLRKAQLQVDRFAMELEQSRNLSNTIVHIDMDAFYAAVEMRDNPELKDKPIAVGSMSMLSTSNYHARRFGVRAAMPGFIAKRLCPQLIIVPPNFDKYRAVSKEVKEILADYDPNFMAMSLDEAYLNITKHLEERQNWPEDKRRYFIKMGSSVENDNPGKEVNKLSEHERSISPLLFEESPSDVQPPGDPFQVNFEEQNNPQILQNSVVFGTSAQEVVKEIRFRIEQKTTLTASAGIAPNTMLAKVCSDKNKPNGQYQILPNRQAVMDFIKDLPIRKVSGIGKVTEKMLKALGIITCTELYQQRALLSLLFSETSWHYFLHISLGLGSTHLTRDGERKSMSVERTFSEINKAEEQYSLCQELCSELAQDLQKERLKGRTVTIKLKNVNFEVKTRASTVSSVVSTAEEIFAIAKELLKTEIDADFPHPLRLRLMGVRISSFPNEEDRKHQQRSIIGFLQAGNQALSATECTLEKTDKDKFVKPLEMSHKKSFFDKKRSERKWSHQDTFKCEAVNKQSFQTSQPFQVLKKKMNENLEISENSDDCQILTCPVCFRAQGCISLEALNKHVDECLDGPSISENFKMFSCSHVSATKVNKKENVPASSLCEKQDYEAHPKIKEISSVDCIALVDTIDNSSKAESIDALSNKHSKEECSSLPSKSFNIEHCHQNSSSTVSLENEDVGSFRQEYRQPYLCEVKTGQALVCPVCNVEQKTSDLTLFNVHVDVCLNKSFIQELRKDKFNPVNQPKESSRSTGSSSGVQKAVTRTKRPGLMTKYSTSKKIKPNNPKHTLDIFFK
Compound,"activity, negative = inhibition",Potency
COc1cc2cc3c4cc(OC)c(OC)cc4cc[n+]3c(C)c2cc1OC,inactive: -13.5% [at 12 µM],–
Cc1ccc(S(=O)(=O)c2cc(Nc3ccccc3)ccc2O)cc1,–,active: 39.8 µM
CC[C@H](C)[C@H](NC(=O)[C@H](Cc1ccc(O)cc1)NC(=O)[C@@H](NC(=O)[C@H](CCCN=C(N)N)NC(=O)[C@@H](N)CC(=O)O)C(C)C)C(=O)N[C@@H](Cc1ccc(N)cc1)C(=O)N1CCC[C@H]1C(=O)N[C@@H](Cc1ccccc1)C(=O)O (H-DRVYI[Phe(4-NH2)]PF-OH),inactive: 17.1% [at 60.1 µM],–
O=C(O)C1CC(CCCP(=O)(O)O)CCN1 (configuration not stated),inactive: 12.9% [at 60.1 µM],–
O=c1c(O)c(-c2ccc(O)c(O)c2)oc2c(OC[C@@H]3O[C@@H](O)[C@@H](O)[C@H](O)[C@H]3O)c(O)cc(O)c12,–,active: 0.316 µM
C=N[C@H](C(=O)N[C@@H]1C(=O)N2[C@@H]1SC(C)(C)[C@@H]2C(=O)O)c1ccccc1,inactive: -3.42% [at 12 µM],–
OC[C@@H]1O[C@H](O)[C@H](O)[C@@H](O)[C@@H]1O,inactive: -3.03% [at 60.1 µM],–
COc1ccc(NC(=O)c2ccc(-c3ccc(-c4noc(C)n4)cc3C)cc2)cc1OCCN(C)C,–,inactive
O=c1c(O)c(-c2ccc(O)c(O)c2)oc2c(OC3OC(CO)C(O)C(O)C3O)c(O)cc(O)c12 (configuration not stated),–,active: 3.16 µM
O=C1OCCN1C(=O)[C@H]1[C@H](c2ccccc2)C(c2ccc(F)cc2)=NN1c1ccccc1,inactive: 11.5%,–
O=C(O)c1cccc(-n2cccc2/C=C2/NC(=O)N(c3ccc(Cl)cc3)C2=O)c1,–,active: 1.58 µM
Cc1cc(C)c2nc(-c3ccco3)cc(C(=O)O)c2c1,–,active: 22.4 µM
COc1cc2c(c(OC)c1OC)C(c1ccccc1C)CC(=O)O2 (configuration not stated),inactive: 2.85%,–
Cc1nc2scc(C)n2c(=O)c1S(=O)(=O)Nc1ccc(N2CCOCC2)c(Cl)c1,inactive: 9.88%,–
C=C[C@@]1(C)CC(=O)[C@]2(O)[C@@]3(C)[C@H](O)CCC(C)(C)[C@@H]3[C@H](O)[C@H](OC(C)=O)[C@@]2(C)O1,inactive: 14.6% [at 60.1 µM],–
CO[C@@]12[C@H](COC(N)=O)C3=C(C(=O)C(C)=C(N)C3=O)N1C[C@@H]1N[C@@H]12,inactive: -11.8%,–
C[C@]12CC[C@@H]3c4ccc(O)cc4CC[C@H]3[C@@H]1CC[C@H]2O,inactive: -15.6% [at 60.1 µM],–
CCC(C(=O)OCCN(CC)CC)c1ccccc1 (configuration not stated),inactive: 0.95% [at 19.4 µM],–
COc1ccc(Cn2c(CCC(=O)Nc3ccccc3OC)nc3cccnc32)cc1,inactive: -1.07%,–
Cc1ccc(-c2nc3c(c(SCC(=O)Nc4cccc(C(=O)O)c4)n2)Cc2cccc(C)c2O3)cc1,–,inactive
CC(=O)OC1CC2CCC1(C)C2(C)C (configuration not stated),–,inactive
Cc1ccc(NC(=O)CN(C)C(=O)c2cccc(-n3cccc3)c2)cc1,–,active: 17.8 µM
CC(/C=C/C1(O)C(C)CC(O)CC1(C)C)OC1OC(CO)C(O)C(O)C1O (configuration not stated),–,active: 56.2 µM

Compound,"activity, negative = inhibition",Potency
O=C(c1ccc(C(F)(F)F)cc1)N1CCC(=O)N(C(COCc2ccc(C(F)(F)F)cc2)Cc2ccccc2)CC1 (configuration not stated),inactive: -0.0329%,–
CC[C@H](C)[C@H](NC(=O)[C@H](Cc1ccc(O)cc1)NC(=O)[C@H](CCCNC(=N)N)NC(=O)[C@H](CCCNC(=N)N)NC(=O)[C@H](CC(C)C)NC(=O)[C@H](CCC(N)=O)NC(=O)[C@@H](NC(=O)[C@H](CCC(=O)O)NC(=O)[C@H](Cc1ccc(O)cc1)NC(=O)[C@H](CCC(N)=O)NC(=O)[C@H](C)NC(=O)[C@H](CCCNC(=N)N)NC(=O)[C@H](CCC(N)=O)NC(=O)[C@H](CCC(=O)O)NC(=O)[C@H](Cc1cnc[nH]1)NC(=O)[C@@H](NC(=O)[C@H](C)NC(=O)[C@H](Cc1ccc(O)cc1)NC(=O)[C@H](CC(=O)O)NC(=O)CNC(=O)[C@@H]1CCCN1C(=O)[C@H](Cc1ccc(O)cc1)NC(=O)[C@H](CCSC)NC(=O)[C@@H]1CCCN1C(=O)[C@H](CCC(=O)O)NC(=O)[C@H](CC(C)C)NC(=O)[C@@H]1CCCN1C(=O)[C@H](C)N)[C@@H](C)O)[C@@H](C)O)C(=O)N[C@@H](CC(N)=O)C(=O)N[C@H](C(=O)N[C@@H](CC(C)C)C(=O)N[C@H](C(=O)N[C@@H](CCCNC(=N)N)C(=O)N1CCC[C@H]1C(=O)N[C@@H](CCCNC(=N)N)C(=O)N[C@@H](Cc1ccc(O)cc1)C(N)=O)[C@@H](C)O)[C@@H](C)O,inactive: 19.1% [at 60.1 µM],–
CCN1/C(=C/C=C/c2sc3ccccc3[n+]2CC)Sc2ccccc21,–,active: 11.2 µM
O=C(O)C1CCCN1 (configuration not stated),inactive: 11.4% [at 60.1 µM],–
CC(C)(C)[C@]1(O)CCN2C[C@H]3c4ccccc4CCc4cccc(c43)[C@@H]2C1,–,inactive
COc1ccc2cc(C(C)C(=O)O)ccc2c1 (configuration not stated),–,inactive
CCc1nn(CC(=O)NCc2ccccc2Cl)c(=O)c2cccn12,inactive: -3.43%,–
CN(C)C1C(=O)C(C(N)=O)=C(O)[C@@]2(O)C(=O)C3=C(O)c4c(O)ccc(Cl)c4C(O)[C@H]3C[C@@H]12 (some centres not stated),inactive: -13.9% [at 60.1 µM],–
O=C(O)C1=CCCNC1,–,inactive
C=C[C@]1(C)CC(=O)[C@@]2(O)[C@@]3(C)C(O)CCC(C)(C)C3C(O)C(OC(C)=O)[C@@]2(C)O1 (some centres not stated),inactive: -3.5% [at 60.1 µM],–
CC(C)(C)C(=O)OCOP(=O)(OCOC(=O)C(C)(C)C)C(C)(Oc1ccc(O)cc1)P(=O)(OCOC(=O)C(C)(C)C)OCOC(=O)C(C)(C)C,–,active: 35.5 µM
C[C@@H]1O[C@@H](OC[C@@H]2O[C@H](Oc3c(-c4ccc(O)cc4)oc4cc(O)cc(O)c4c3=O)[C@@H](O)[C@H](O)[C@H]2O)[C@H](O)[C@H](O)[C@H]1O,inactive: -3.06%,–
C#Cc1ccc([C@@H]2C=C(C(=O)OCC=C)O[C@H](OCc3ccc(CO)cc3)C2)cc1,inactive: -21.7%,–
C[C@H]1c2cccc(O)c2C(O)=C2C(=O)C3(O)C(O)=C(C(N)=O)C(=O)[C@@H](N(C)C)[C@@H]3[C@@H](O)[C@@H]21 (some centres not stated),inactive: 0.57%,–
COc1ccc(/C=C/c2ccc3ccccc3[n+]2C)cc1OC,inactive: -30.1%,–
COc1cc(OC)c2c(-c3ccccc3)cc(=O)oc2c1C(CC(=O)N1CCCC1)c1ccc2c(c1)OCO2 (configuration not stated),inactive: -26.1%,–
COc1cc2cc(CN(Cc3cccnc3)C(=O)Nc3ccccc3F)c(=O)[nH]c2cc1OC,inactive: 32.3%,–
C[C@@H]1C(c2ccc(F)cc2)=NN(c2ccccc2)[C@H]1C(=O)N1CCOC1=O,inactive: -17.1%,–
H-VLGKLSQELHKLQTYPRTNTGSGTP-NH2,inactive: 22% [at 60.1 µM],–
O=C(c1ccc(=O)oc1)N1CCOCC1,–,active: 50.1 µM
COc1cccc(CNC(=O)CCNS(=O)(=O)c2ccc3c(c2)oc(=O)n3C)c1,inactive: -10.7%,–
O=[N+]([O-])c1cccc2cn[nH]c12,–,inactive
COc1cc(/C=C(\C#N)C(=O)Nc2nnc(C(F)(F)F)s2)ccc1OCc1ccc(C(F)(F)F)cc1C(F)(F)F,–,active: 6.7 µM

Compound,"activity, negative = inhibition",Potency
CC(C)C[C@H](NC(=O)[C@@H](Cc1c[nH]c2ccccc12)NC(=O)[C@@H](Cc1ccc(O)cc1)NC(=O)[C@@H](CO)NC(=O)[C@@H](Cc1c[nH]c2ccccc12)NC(=O)C(Cc1cnc[nH]1)NC(=O)C1CCC(=O)N1)C(=O)N[C@@H](CCCN=C(N)N)C(=O)N1CCC[C@@H]1C(=O)NCC(N)=O (some centres not stated),inactive: -5.89% [at 19.4 µM],–
CCCc1cc(C(=O)N2CCN(C(c3ccccc3)c3ccccc3)CC2)no1,–,active: 89.1 µM
CC1(C)[C@@H](O)CC[C@]2(C)C3C(=O)C=C4C5C[C@@](C)(C(=O)O)CC[C@]5(C)CC[C@@]4(C)[C@]3(C)CC[C@@H]12 (some centres not stated),inactive: -7.56% [at 19.4 µM],–
Cc1cc(-c2ccc(N=Nc3c(S(=O)(=O)O)cc4cc(S(=O)(=O)O)cc(N)c4c3O)c(C)c2)ccc1N=Nc1c(S(=O)(=O)O)cc2cc(S(=O)(=O)O)cc(N)c2c1O,–,active: 0.891 µM
Cc1nc2ccc3nc(NC(=O)c4ccc5c(c4)OCCO5)sc3c2s1,inactive: -29.1%,–
Oc1ccc(-c2csc(-c3cccnc3)n2)cc1O,–,active: 31.6 µM
COc1ccc(-c2nn(CCC(=O)O)cc2/C=C2\SC(N)=NC2=O)cc1,–,active: 79.4 µM
Nc1ncnc2c1c(-c1ccc(Oc3ccccc3)cc1)cn2C1CCCC1,–,inactive
C=CC1(C)CC(=O)C2(O)C(C)(O1)C(OC(C)=O)C(O)C1C(C)(C)CCC(O)C12C (configuration not stated),–,inactive
O=C(N/N=C/c1cc(Br)c(O)c(Br)c1)c1cc2c(ccc3ccccc32)o1,–,active: 20 µM
CN(C)c1ccc(/C=C2\SC(=S)N(Nc3ncc(C(F)(F)F)cc3Cl)C2=O)cc1,–,active: 17.8 µM
O=[N+]([O-])c1ccc(-[n+]2ccc3ccccc3c2)c([N+](=O)[O-])c1,–,active: 79.4 µM
Oc1ccc(-c2cn3c(n2)SCC3)cc1O,–,active: 7.08 µM
Oc1c(/C=C/C=C/C=Nc2ccccc2)sc(=S)n1Cc1ccccc1,–,active: 79.4 µM
O=C1/C(=C\c2ccc(O)c(O)c2)Oc2c1ccc(O[C@@H]1O[C@H](CO)[C@@H](O)[C@H](O)[C@H]1O)c2O,–,active: 31.6 µM
CCCCNC(=O)c1cnc2c(-c3ccc(OCC)c(OCC)c3)c(C)nn2c1-c1ccccc1,inactive: 28%,–
O=C1c2ccccc2C(=O)c2c1ccc(O)c2O,inactive: -23.3%,–
Cc1c2cnn(CC(=O)Nc3c(F)c(F)cc(F)c3F)c(=O)c2c(C)n1Cc1ccccc1F,–,active: 44.7 µM
O=C(OCC1OC(OC(=O)c2cc(O)c(O)c(OC(=O)c3cc(O)c(O)c(O)c3)c2)[C@@H](OC(=O)c2cc(O)c(O)c(OC(=O)c3cc(O)c(O)c(O)c3)c2)C(OC(=O)c2cc(O)c(O)c(OC(=O)c3cc(O)c(O)c(O)c3)c2)C1OC(=O)c1cc(O)c(O)c(OC(=O)c2cc(O)c(O)c(O)c2)c1)c1cc(O)c(O)c(OC(=O)c2cc(O)c(O)c(O)c2)c1 (some centres not stated),–,active: 0.006 µM
COC(=O)C1=CO[C@@H](O[C@@H]2O[C@H](CO)[C@@H](O)[C@H](O)[C@H]2O)C2C1C=C[C@@]2(O)CO (some centres not stated),inactive: -15.7%,–
O=C1NC(=S)S/C1=C\c1ccc(SCc2ccco2)o1,–,active: 1.78 µM
